This is one part of the list. Viral Rep nickase domains cut single-stranded DNA in vitro at 3 µM enzyme and 37 °C for 1 h; the strands have 90 letters, of which the middle is given. Values are log2 of uncut reads against the no-enzyme pool; uncut sequences lie near 0, cut ones below; no hit call is given. Counts are relative to all reads; uncut strands gain when others are lost, and binding without cutting may add a little.

Consider 15 sequences from the supplement of paper PMC7826260.

Assay in all cases: uncleaved DNA left, log2 of reads against the no-enzyme library (log2 ratio); higher = less cleavage (more negative = more Rep cleavage of the k-mer); sequences stand for … in CTCGTCCG…ACCGGAGA
Experiment [1] has as its system T1, Rep nickase domain of Muscovy duck circovirus.
T1 sequence (protein, residues 1-111, tag omitted): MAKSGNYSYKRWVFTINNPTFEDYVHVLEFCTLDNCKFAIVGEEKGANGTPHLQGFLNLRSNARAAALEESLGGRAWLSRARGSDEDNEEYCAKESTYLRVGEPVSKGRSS
The procedure: (§1)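 A pool of 90-nt single-stranded DNAs with seven random bases just before the constant AC of the nick site (name = the seven bases) was cut by 3 µM recombinant His6-SUMO-tagged Rep nickase domain (300 nM DNA, 50 mM HEPES pH 8.0, 50 mM NaCl, 1 mM MnCl2, 1 h, 37 °C, three replicates). Uncut DNA was amplified and sequenced.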

For experiment [2], the system named is T2, Rep nickase domain of banana bunchy top virus.
T2 sequence (protein, residues 1-94, tag omitted): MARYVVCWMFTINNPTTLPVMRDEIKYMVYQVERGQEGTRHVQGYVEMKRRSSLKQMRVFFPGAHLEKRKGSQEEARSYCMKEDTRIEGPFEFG
As for the experimental part:
as §1

Experiment [3] deals with T3, Rep nickase domain of cabbage leaf curl virus.
T3 sequence (protein, residues 1-116, tag omitted): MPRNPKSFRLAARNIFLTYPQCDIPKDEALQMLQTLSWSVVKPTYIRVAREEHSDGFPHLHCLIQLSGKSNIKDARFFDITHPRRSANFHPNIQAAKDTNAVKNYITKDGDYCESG
As for the experimental part:
as §1

Experiment [4] concerns T4, Rep nickase domain of chickpea chlorotic dwarf virus.
T4 sequence (protein, residues 1-124, tag omitted): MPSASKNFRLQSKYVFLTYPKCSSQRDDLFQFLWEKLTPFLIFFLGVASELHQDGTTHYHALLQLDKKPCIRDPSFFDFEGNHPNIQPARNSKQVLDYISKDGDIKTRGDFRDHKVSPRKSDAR
As for the experimental part: as §1
The subject of experiment [5] is T5, Rep nickase domain of faba bean necrotic yellows virus.
T5 sequence (protein, residues 1-98, tag omitted): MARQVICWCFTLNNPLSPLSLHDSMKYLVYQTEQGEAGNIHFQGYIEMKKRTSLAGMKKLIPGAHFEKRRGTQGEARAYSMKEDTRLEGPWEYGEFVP
The procedure: as §1
Experiment [6] concerns T6, Rep nickase domain of maize striate mosaic virus.
T6 sequence (protein, residues 1-117, tag omitted): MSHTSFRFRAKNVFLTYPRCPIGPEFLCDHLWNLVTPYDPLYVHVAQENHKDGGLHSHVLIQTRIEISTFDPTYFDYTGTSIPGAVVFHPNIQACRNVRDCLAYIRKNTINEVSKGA
As for the experimental part: as §1
Experiment [7] concerns T7, Rep nickase domain of porcine circovirus 2.
T7 sequence (protein, residues 2-116, tag omitted): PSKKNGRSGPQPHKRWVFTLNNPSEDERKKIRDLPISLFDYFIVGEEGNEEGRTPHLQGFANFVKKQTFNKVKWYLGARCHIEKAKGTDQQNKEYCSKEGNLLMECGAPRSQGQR
As for the experimental part: as §1
For experiment [8], the system named is T8, Rep nickase domain of tomato yellow leaf curl virus.
T8 sequence (protein, residues 1-136, tag omitted): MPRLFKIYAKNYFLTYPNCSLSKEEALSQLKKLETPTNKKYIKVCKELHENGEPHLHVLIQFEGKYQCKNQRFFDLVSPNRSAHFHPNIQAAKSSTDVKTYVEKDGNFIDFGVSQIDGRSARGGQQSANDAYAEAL
The procedure:
as §1

Experiment [9] has as its system T9, Rep nickase domain of wheat dwarf virus.
T9 sequence (protein, residues 1-137, tag omitted): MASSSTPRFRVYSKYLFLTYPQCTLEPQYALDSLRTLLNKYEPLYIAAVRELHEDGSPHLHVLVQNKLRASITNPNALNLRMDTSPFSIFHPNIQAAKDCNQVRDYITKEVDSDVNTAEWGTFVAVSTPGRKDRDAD
The procedure: as §1

Turning to CAGGGAG, the “uncleaved DNA left (log2)” value is 0.106 in [1]; 0.168 in experiment [2]; -0.341 in [3]; -0.076 in [4]; 0.18 in [5]; -0.605 in experiment [6]. Further, the “uncleaved DNA left (log2)” value came to 0.211 in [7], 0.0827 in experiment [8] and 0.0647 in experiment [9].

Turning to TCTGTAC, the “uncleaved DNA left (log2)” value was 0.106 in experiment [1]; -0.113 in [2]; -0.00223 in experiment [3]; -0.503 in experiment [4]; -0.0273 in experiment [5]; -0.346 in experiment [6]. The “uncleaved DNA left (log2)” value in [7] is 0.0993; in [8] it was -0.122; in experiment [9], 0.00104.

With AATATAT, the “uncleaved DNA left (log2)” value in [1] was 0.0182; in experiment [2] it was -0.169; in [3], -0.839; in [4], -1.95; in experiment [5], 0.074; in experiment [6], -0.312. Further, the “uncleaved DNA left (log2)” value in experiment [7] is -3.23; in [8], 0.0939; in experiment [9], 0.105.

Regarding GTGACAC, the “uncleaved DNA left (log2)” value in experiment [1] was 0.0481; in [2], 0.107; in experiment [3] it was 0.641; in experiment [4], 1.53; in experiment [5], 0.0203; in [6], 2.15. In addition, the “uncleaved DNA left (log2)” value in [7] worked out at 0.197; in [8] it was 0.0505; in experiment [9], 0.247.

AATGCAG: the “uncleaved DNA left (log2)” value in experiment [1] was 0.00249; in [2], -0.0583; in experiment [3] it was -0.696; in experiment [4], -0.229; in [5] it was 0.0271; in [6], -1.17. The “uncleaved DNA left (log2)” value in [7] is 0.191; in experiment [8] it was 0.0121; in experiment [9], -0.0722.

Turning to AGCGCGG, the “uncleaved DNA left (log2)” value is 0.0237 in experiment [1]; 0.13 in experiment [2]; -0.00535 in [3]; 0.593 in [4]; -0.0286 in experiment [5]; 1.64 in experiment [6]. The “uncleaved DNA left (log2)” value in [7] was 0.0881; in experiment [8], 0.0262; in [9], 0.0497.

TAGGATG: the “uncleaved DNA left (log2)” value in experiment [1] is 0.152; in [2] it was -0.0808; in experiment [3] it was -0.144; in [4] it was 0.0177; in experiment [5] it was -0.0574; in [6], -0.121. For the same sequence, the “uncleaved DNA left (log2)” value was 0.00377 in experiment [7], 0.108 in experiment [8] and 0.00312 in experiment [9].

For the sequence CATCCTG, the “uncleaved DNA left (log2)” value in experiment [1] was -0.253; in experiment [2] it was -0.0681; in experiment [3], -0.362; in experiment [4], -0.211; in experiment [5], -0.171; in experiment [6], -0.555. The “uncleaved DNA left (log2)” value in experiment [7] was -0.111; in [8] it was -0.0423; in [9] it was -0.0716.

CAAGAAA: the “uncleaved DNA left (log2)” value was 0.044 in experiment [1]; -0.0747 in experiment [2]; 0.119 in experiment [3]; -0.305 in experiment [4]; 0.0256 in experiment [5]; -0.472 in [6]. In addition, the results for the “uncleaved DNA left (log2)” value in experiment [7], in experiment [8] and in experiment [9] were 0.116, -0.0385 and 0.0113, respectively.

As to AGCCATG, the “uncleaved DNA left (log2)” value in [1] is 0.03; in experiment [2] it was 0.0339; in [3], 0.063; in experiment [4] it was 0.46; in experiment [5], -0.0388; in experiment [6] it was 0.925. The “uncleaved DNA left (log2)” value in [7] was 0.149; in experiment [8] it was -0.157; in experiment [9] it was 0.121.

In the case of GGGTGTC, the “uncleaved DNA left (log2)” value was -0.0183 in [1]; 0.00794 in experiment [2]; 0.67 in [3]; 1.62 in [4]; -0.059 in experiment [5]; 2.1 in [6]. Further, the “uncleaved DNA left (log2)” value in experiment [7] is 0.113; in experiment [8], 0.0162; in experiment [9] it was 0.0616.

For the sequence CGCTTAA, the “uncleaved DNA left (log2)” value in [1] is 0.0638; in [2] it was -0.0245; in [3], -0.119; in experiment [4] it was -0.338; in experiment [5], -0.0227; in [6], -0.402. For the same sequence, the “uncleaved DNA left (log2)” value in [7] was -0.038; in experiment [8] it was -0.0362; in [9], 0.0265.

With CTAGGCG, the “uncleaved DNA left (log2)” value in experiment [1] was -0.105; in experiment [2] it was -0.144; in experiment [3] it was -0.934; in experiment [4], 0.283; in experiment [5] it was -0.0227; in [6] it was -0.772. The “uncleaved DNA left (log2)” value in [7] was 0.059; in [8], 0.0379; in [9], -0.0813.

Regarding CGGTGCA, the “uncleaved DNA left (log2)” value is 0.0349 in experiment [1]; -0.0252 in [2]; -0.111 in experiment [3]; 0.167 in experiment [4]; 0.0187 in experiment [5]; -0.258 in experiment [6]. Further, the “uncleaved DNA left (log2)” value was 0.0112 in experiment [7], 0.0165 in [8] and -0.0265 in experiment [9].

On to ACTTGGT, for which the “uncleaved DNA left (log2)” value in experiment [1] was -0.198; in experiment [2], -0.15; in experiment [3] it was -0.384; in [4] it was -0.811; in experiment [5], -0.0322; in experiment [6], -1.05. Also, the entries for the “uncleaved DNA left (log2)” value in experiment [7], in experiment [8] and in experiment [9] were -1, -0.0685 and -0.107, respectively.
